Laboratory results published in PMC10726135.
The other results are listed elsewhere or left out. At the low end of the ranking the order means little. The protein was read in a cell extract, so binding may be indirect.

target: T1, HNF4alpha8 (COS-7 nuclear extract) (UniProt P41235-5); assay: protein-binding microarray; settings: COS-7 nuclear extract on double-stranded Agilent 4x180k PBM; binding buffer, salt, pH and temperature not given; high values mean tight binding; double strand, one strand shown; sequences stand for … in …GCCTAGGGAGATTAGAGTATCGGTCGA
T1 sequence: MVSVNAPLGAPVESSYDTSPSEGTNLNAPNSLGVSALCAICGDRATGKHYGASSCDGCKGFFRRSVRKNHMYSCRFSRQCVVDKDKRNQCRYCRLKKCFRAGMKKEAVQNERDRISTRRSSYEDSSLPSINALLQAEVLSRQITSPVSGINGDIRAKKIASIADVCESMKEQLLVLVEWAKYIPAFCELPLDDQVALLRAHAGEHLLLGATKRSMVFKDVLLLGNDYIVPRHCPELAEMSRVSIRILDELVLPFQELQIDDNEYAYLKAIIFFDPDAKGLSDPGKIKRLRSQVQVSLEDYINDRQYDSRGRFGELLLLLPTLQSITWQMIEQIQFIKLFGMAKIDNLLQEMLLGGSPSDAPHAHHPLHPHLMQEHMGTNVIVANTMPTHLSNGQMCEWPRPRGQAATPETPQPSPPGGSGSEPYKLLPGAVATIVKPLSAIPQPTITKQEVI

Sequence | binding signal (log2 normalized intensity)
ATAAGGCAGTGGTTTGCAGTTGGAAAGCTG | -1.33
ATGTGTTTGCATGACTCATAAAGAACAGTT | 0.739
TTGACCTTCTCTGTTAACCCTTTGCAGCCC | 2.91
AATTTACATAACAGGTTTGTAACTTCTTGG | 0.645
TGTCTCCAGAAATCAACCTTTGATCGTTTG | 6.77
GGTCTACATGGAAGCCCAGATGACTGCCTT | -1.26
GAAGCAATGGCCCTCAGCAAACCTTCTGGC | -1.42
TTCATTTGCCCAGCTGTTCCGTGTTCCAGA | 0.368
AGCCTAGACAAGGCACCAAAGGAATCTACA | -1.26
TGCCCAGCAGAAAAGCTGTACCAATTATTG | -1.06
TCTCACTGCAACCTGAGTGCCAGAGCTGTG | -0.984
TCTCTGACGCTCAGTAAATCTGCACTTTAC | 2.76
GTGCTAAAGGTCATATCCAAAATATTTGCA | 3.11
AAAGTGCATTGAAAGCACTAATTAACTGAG | -1.22
TTCATTATGGATAGGCACATATTGGATCTC | 1.32
TAGATGTGCTATATAAAAACTAACCATACT | -1.44
GGTTTTTCCATTGTACTCAGTATGTGCTGA | 1.36
GGACACAGAATGACTTTCAGAAAGTCCTTG | 0.56
AAGGACCTAGAGCTATTCCTTTGAAATGTT | 0.636
ACAGTACAAAGGTGAGCTTTTATCTTAAGT | 3.1
TCTGATCCTTTACAGAGATAAGAGGTGTCA | 0.332
TCTGCAAGGAAGGTGGGGGCCGCCCATTGG | -1.35
CATTTTAACCTTTGGCTGGTAGAGCAGGTT | 3.14
CCGAGCCTCAGCCGGGAGAGGAGGCCCCCT | 2.18

Sequence | binding signal (log2 normalized intensity)
CGTGGGCGTGAGTTTGCTGTCTTGACTTGG | 1.19
AAATCCCTGGTCAAAGTCAACTCCTCCAAG | -1.25
GTTTTTAAGACAAACAAAAAACCCTAGAGA | -1.44
GCTGGAGCTCCTGGGCCAAAGGGCATTCTG | 4.62
TTGATAACCTACAACCTTCTGAGATGGAGC | -1.2
TTATGAAGGGGGGTGGGGAGGCAGGTGGCT | -1.3
AAGAAAGTTGAGGTGAATACACAGCTAGCA | -1.25
CTGGCTGCCCTGGGGTGACAGCTTTCTCCT | -0.448
ACCACTTTGAAATAGTGACCTCTGCTGGCC | 3.43
ATCGCCACTGATTGAGGTTCACTCTATGTT | -0.9
GCATTTTTTGTAGATGCCTGCTTTCCACTC | 1.39
CGCCGCTTCCCCACCCCCTCTCCTCCCTCG | 5.29
TTTTTTTTCTTAATTGCCCTTTGCCCTTTG | 9.03
TTAACATTGCCGACCTCATGAGTAGAGAGC | 0.0683
ATGATGGCCAGTTCAGCGCGTCTTAGCACT | -1.3
TTGGTTTATGTTCACCTCAGCACTGAGATA | -0.229
CCTCTGCTGCGATCACCCAGGTCCAAGTCA | 1.91
GGTTCACATTTTTGTCATCTTCACTTTTGT | 1.64
AGAAGTATGACAACAAAGCATTATCTACAC | -1.27
AGGAAGTCGCTTGCCAGTATGCCACTGGTT | -1.27
TACAGTAATTAGACAACATCGAAGACTTCA | -1.36
TCTGATAAGGGTGTTTGTCCTTTGTTGCAA | 1.97
AAATTTCCGTGTCGAAACTACAAACGGATA | -1.25
TGCCCTTGACTTTTTGTGGGGGCAGATGTT | 2.31

Sequence | binding signal (log2 normalized intensity)
TGAAGATACTGGATAACCTTCCAGACAGAG | -1.31
GTAAGTTCAAGAAGACCTTTGCTCCACGTT | 5.12
GGACGTGGAATAGATCAGCTTTCAACACTC | -1.26
CCTCCCTCCCCCTTTCTCCGCTAAGTGGCT | 2.45
CAGAACAAAGTCCAGTAAGGACAGTTCCAG | 3.12
TAAAGCTAACCAGCTCTATCAGTCTGGGTC | -0.733
GTAACCTTTGCCCCCCAAGTTGAAGCCATC | 5.74
GAGTGCCTCCATTTCACAAATGAGGGGACA | 0.0214
AAGGCATGCTTGGCATCCCTGTGGTATTTG | 0.0799
AAGCTGAAAACAAATATTTGCCTAGGATTC | -1.21
TAAAAGGATCATGGAATTTAATTAGCTTCT | -1.37
CTGATGTGTTCGCCCCTAGGACACGCAGTT | 1.14
GCAGAATCAAAGGTCAAAATATCTGATCGA | 3.79
TCACCTAACCACATTCTTTCTGCATCGCAG | -1.2
TTTTCCCTTCTGTTAGAATGTATTGAGAAG | 0.754
AACCAAGGGTACACACCGTTAGCCAATATT | -1.08
GGCCTCTTCCCCAAACTAGGAGAGTGGACT | 2.98
CAGGGTCAGAGGTCGCGAGGGAGAGCCCTA | 3.65
AGGACTTATCCTTGGGACATTCTCACATTA | 0.368
GACCGTCCCTGGGTACAACTTTATCTAAGG | 0.636
GGAATGCGGGCTCCACCACTTGCTCACGAA | -1.23
CAATTGCCCTACAGCTCCTGAGTCCACATG | 1.98
CAGCTGTCGTGTGAATAGCACTGACCAGCT | 0.27
ACCGTAAATGCATTATTGCACTGTGCTTTG | 1.3

Sequence | binding signal (log2 normalized intensity)
AATACTGTGCAAATCCCCGCCTTTGACACA | 1.95
TTACGGGGTGGTTTATCTGCCTGTGGATAG | 1.17
TTTCCCCGTCCCAAGCTGAGGTCTGGTGTC | 2.83
GGAAGGATAAGAGCAAGAAACAGCAAATGC | -1.36
ATAGGAAAAGGGAGTTTTCTGCTCTCAACT | -1.33
CAGCTTTCTTTTCCAACCATTGACACTCCT | 1.17
AAGCAAGACAATGCACTCATAACTAGGGTT | -1.13
CCCGGACCCTGACTCTGCAGCCGAACCGGC | -1.27
GCTGGAATTTGAACCCAAGCAATCTGGCTG | 3.42
TAGAAAACAAGTTAGACAGTGCCTATGTTG | -1.13
CTGGATGGTGTTTGATCTGATGTACCCAGC | 2.18
TATATGAGGAAGGGTGTGTAAAACAGGTGA | 0.654
GGTATGAGGCCAGTTTTCCTAAGGGGCTTT | -1.25
GAGATCTGAATGGAATGAAGATACTGGATA | -1.32
CTATGACCTTTCACCTTTTAGCTTGGCATG | 5.08
TGCTCCACCCTTCTATCCCCTTATCTAAAT | 2.58
GAGGTGACGGCTAAGAGAAATCCACACAGC | -1.39
AGGTCATTCATGTGCAGGTTGGAATATGTG | 2.39
CGCTGGGGAAGAGTGTGACTGTGGTACTCC | 0.589
AGTCTGCCTCTATGTGATCAGATGTGGACA | 1.94
TCCACACAGCACTGACCTTTGAGAGTCAAC | 4
